Experimental data published in PubChem BioAssay (Tox21).
“And” between values parts separate entries of the source, which are not always exact repeats. Equal entries are not always repeated. Inconclusive means that the source gave no clear call. Such entries were picked first, then a sample of the others. For some assays here: Potencies beside an inconclusive call are fits to weak or partial responses and may not hold up. A structure can be active in one record and inactive in another. The source made the active and inactive calls. Unless noted, calls come from the whole dose curve; as a rule, active = well fitted curve in the direction sought with a large enough effect in the repeat runs; inconclusive = weak or mixed curves; inactive = no such curve, though single readings can be large; an effect the other way counts as inactive or inconclusive.

Legend:
[1] = qHTS RealTime-Glo MT Cell Viability Assay in HepG2 cells - 16 hour (AID 1224885); note: nearly all actives have a fitted effect of over 50% in size; note: potency is the fitted concentration of half-maximal effect
In short: (§1)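 Luminescence read-out: viable HepG2 cells reduce a prosubstrate to a NanoLuc substrate, giving a signal proportional to live cell number. Reads taken at 0, 8, 16, 24, 32 and 40 h of compound exposure at 37 C.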

[2] = qHTS RealTime-Glo MT Cell Viability Assay in HEK293 cells - 24 hour (AID 1224886); note: potency is the fitted concentration of half-maximal effect; nearly all actives have a fitted effect of over 50% in size
In short: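 Nonlytic real-time viability readout: viable cells convert prosubstrate to NanoLuc substrate, giving luminescence proportional to live cell number. HEK293, 600 cells/well, compound added after 5 h, continuous culture at 37 C.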

[3] = A CellTox Green Cytotoxicity Assay to monitor cytotoxicity in HEK293 cells - 16 hour (AID 1224888); note: potency is the fitted concentration of half-maximal effect; nearly all actives have a fitted effect of over 35% in size
In short: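 Nonlytic real-time cytotoxicity: HEK293 + CellTox Green reagent plated, 5 h preincubation, pintool compound addition (23 nL in DMSO), 37 C for 40 h, fluorescence measured at successive time points.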

[4] = qHTS RealTime-Glo MT Cell Viability Assay in HepG2 cells - 0 hour (AID 1224889); note: potency is the fitted concentration of half-maximal effect; nearly all actives have a fitted effect of over 50% in size
In short: as §1

[5] = qHTS assay to identify small molecule antagonists of the estrogen receptor alpha (ER-alpha) signaling pathway using the BG1 cell line in the presence of 0.1 nM 17-beta-estradiol - cell viability counter screen (AID 1259241); note: potency is the fitted concentration of half-maximal effect; nearly all actives have a fitted effect of over 40% in size
In short: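 Viability in VM7Luc4E2 cells after 22 hr compound exposure under 0.1 nM 17beta-estradiol stimulation, by CellTiter-Fluor.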

[6] = qHTS assay to identify small molecule antagonists of the androgen receptor (AR) signaling pathway using the MDA cell line in the presence of 0.5 nM R1881 - cell viability counter screen (AID 1259242); note: potency is the fitted concentration of half-maximal effect; nearly all actives have a fitted effect of over 45% in size
In short: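 Counter screen for cytotoxicity run in the same wells as the AR antagonist reporter screen: MDA-kb2 cells were treated 16 hr with test compounds and 0.5 nM R1881, then live-cell protease activity was measured by fluorescence.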

[7] = qHTS assay to identify small molecule HDAC inhibitors - cell viability counter screen (AID 1259365); note: potency is the fitted concentration of half-maximal effect; nearly all actives have a fitted effect of over 50% in size
In short: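 Cytotoxicity was gauged in wild-type HCT-116 cells after a brief 2hr treatment with DMSO-dissolved compounds at 37C and 5% CO2, using CellTiter-Glo luminescence developed for 30min at room temperature.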

[8] = qHTS assay to identify small molecule antagonists of the sonic hedgehog signaling (Shh) pathway (AID 1259369; calls by dose curve; note: nearly all actives have a fitted effect of over 45% in size; note: potency is the fitted concentration of half-maximal effect)
In short: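 3T3Gli1-Luc, conditioned-medium-stimulated, 24hr cpd, 37C/5% CO2; Gli1-driven firefly Luc luminescence after 30min RT with luciferase reagent. Cells plated 4hr before cpd.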

[9] = qHTS RealTime-Glo MT Cell Viability Assay in HEK293 cells - 8 hour (AID 1224887)
In short: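 Cells were seeded together with NanoLuc luciferase and a prosubstrate that viable cells reduce to a luciferase substrate. After a 5 h incubation at 37 C/5% CO2, compounds were added and luminescence was measured repeatedly during 40 h of treatment.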

[10] = biological target: Estrogen receptor (Homo sapiens) (UniProt P03372); assay: qHTS assay to identify small molecule antagonists of the estrogen receptor alpha (ER-alpha) signaling pathway using the BG1 cell line in the presence of 0.1 nM 17-beta-estradiol (AID 1259244)
UniProt P03372, sequence (P03372 whole entry, looked up): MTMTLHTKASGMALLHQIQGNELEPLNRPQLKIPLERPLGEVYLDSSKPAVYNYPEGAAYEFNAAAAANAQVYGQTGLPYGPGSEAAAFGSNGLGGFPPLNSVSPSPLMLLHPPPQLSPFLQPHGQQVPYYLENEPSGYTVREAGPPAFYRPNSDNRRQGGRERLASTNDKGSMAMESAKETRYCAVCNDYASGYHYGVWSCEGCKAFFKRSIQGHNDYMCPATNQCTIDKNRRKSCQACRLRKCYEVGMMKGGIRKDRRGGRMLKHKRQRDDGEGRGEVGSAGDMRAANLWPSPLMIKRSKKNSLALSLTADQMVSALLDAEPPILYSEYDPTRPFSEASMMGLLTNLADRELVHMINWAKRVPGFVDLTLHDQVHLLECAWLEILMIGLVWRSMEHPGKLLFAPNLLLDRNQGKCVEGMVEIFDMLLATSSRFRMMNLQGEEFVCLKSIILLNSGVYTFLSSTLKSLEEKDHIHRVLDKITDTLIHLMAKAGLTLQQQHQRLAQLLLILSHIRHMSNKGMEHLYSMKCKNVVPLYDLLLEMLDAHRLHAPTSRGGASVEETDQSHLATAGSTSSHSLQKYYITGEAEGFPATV
In short: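 Cells: VM7Luc4E2, endogenous ER-alpha, 4x ERE-luc stable. Pre-culture 5 d, phenol red-free, charcoal-stripped FBS. Plated 24 h, compound + E2 0.1 nM final, 22 h 37C/5% CO2. Readout ONE-Glo luminescence.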

[11] = qHTS assay to identify small molecule agonists of the androgen receptor (AR) signaling pathway in the presence of an antagonist - cell viability counter screen (AID 1259379); note: potency is the fitted concentration of half-maximal effect; nearly all actives have a fitted effect of over 25% in size
In short: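 Cells: MDA-kb2 (MMTV-luc, AR and GR elements), 3,000/well, 5 hr settle. Added: nilutamide 3.0uM final, then compounds (15 conc.). Incubation: 16 hr, 37C, no CO2. Read-out: CellTiter-Fluor, 1 hr, fluorescence.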

[12] = A CellTox Green Cytotoxicity Assay to monitor cytotoxicity in HepG2 cells - 8 hour (AID 1224890); note: potency is the fitted concentration of half-maximal effect; nearly all actives have a fitted effect of over 45% in size
In short: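 Read-out is fluorescence of a cyanine dye excluded from live cells that stains DNA of dead HepG2 cells, with signal proportional to cytotoxicity. Plates were read at 0, 8, 16, 24, 32 and 40 h after compound addition.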

[13] = qHTS assay to identify small molecule agonists of the sonic hedgehog signaling (Shh) pathway - cell viability counter screen (AID 1259366)
In short: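 Stable Gli1-Luc NIH/3T3 clone, 2,000 cells/well. Compound exposure 24hr at 37C. Read-out: CellTiter-Fluor fluorescence.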

[14] = qHTS assay to identify small molecule antagonists of the sonic hedgehog signaling (Shh) pathway - cell viability counter screen (AID 1259367); note: nearly all actives have a fitted effect of over 55% in size
In short: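 Using CellTiter-Fluor, viability of Gli1-Luc reporter 3T3 cells is read by fluorescence in the wells used for the Shh luciferase assay. Treatment lasts 23 hr with conditioned medium, then reagent 1 hr at 37C.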

[15] = biological target: Estrogen receptor beta (Homo sapiens) (UniProt Q92731); assay: qHTS assay to identify small molecule agonists of the estrogen receptor beta (ER-beta) signaling pathway (AID 1259377; active = well fitted activation curve with a large enough effect in the signal ratio in the repeat runs, not every such curve was filed as active; inconclusive = weak or mixed curves, or effect the other way; the % refers to the signal ratio; note: potency is the fitted concentration of half-maximal effect); conditions: ER-beta-UAS-bla HEK293T, beta-lactamase FRET ratio, 16 h; series mostly up to 92.4 µM
UniProt Q92731, sequence (Q92731 whole entry, looked up): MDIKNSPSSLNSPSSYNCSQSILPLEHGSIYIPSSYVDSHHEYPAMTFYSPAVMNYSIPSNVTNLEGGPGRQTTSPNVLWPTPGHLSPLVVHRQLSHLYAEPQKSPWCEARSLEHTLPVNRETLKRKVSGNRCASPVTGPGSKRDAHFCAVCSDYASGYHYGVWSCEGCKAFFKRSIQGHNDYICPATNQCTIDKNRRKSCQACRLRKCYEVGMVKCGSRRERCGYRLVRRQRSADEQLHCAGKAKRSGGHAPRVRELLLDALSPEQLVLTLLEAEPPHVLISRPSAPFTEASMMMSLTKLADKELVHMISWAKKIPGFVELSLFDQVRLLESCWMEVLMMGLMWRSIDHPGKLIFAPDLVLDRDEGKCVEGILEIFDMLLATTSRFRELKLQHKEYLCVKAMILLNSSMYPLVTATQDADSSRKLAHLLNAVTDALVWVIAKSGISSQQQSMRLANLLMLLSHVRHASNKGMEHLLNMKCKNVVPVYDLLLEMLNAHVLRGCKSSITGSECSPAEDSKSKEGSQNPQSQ
In short: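 Measured by fluorescence intensity from a B/G FRET beta-lactamase substrate (2 h, room temperature) in ER-beta-UAS-bla HEK293T cells treated with DMSO-dissolved compounds for 16 hr at 37C and 5% CO2.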

[16] = biological target: Estrogen receptor beta (Homo sapiens) (UniProt Q92731); assay: qHTS assay to identify small molecule antagonists of the estrogen receptor beta (ER-beta) signaling pathway (AID 1259378; active = well fitted inhibition curve with a large enough effect in the signal ratio in the repeat runs, not every such curve was filed as active; inconclusive = weak or mixed curves, or effect the other way; inactive = no such curve, though single readings can be large or run the other way; the % refers to the signal ratio; note: potency is the fitted concentration of half-maximal effect); conditions: ER-beta-UAS-bla HEK293T, beta-lactamase FRET ratio, 16 h; series mostly up to 92.4 µM
In short: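 Antagonist mode: compounds added to beta-lactamase reporter HEK293T ER-beta-UAS cells stimulated with E2 (1nM final), 16 hr at 37C. LiveBLAzer B/G FRET substrate, 2 hours room temperature, fluorescence read-out.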

[17] = biological target: Androgen receptor (Homo sapiens) (UniProt P10275); assay: qHTS assay to identify small molecule antagonists of the androgen receptor (AR) signaling pathway using the MDA cell line in the presence of 0.5 nM R1881 (AID 1259243)
UniProt P10275, sequence (P10275 whole entry, looked up): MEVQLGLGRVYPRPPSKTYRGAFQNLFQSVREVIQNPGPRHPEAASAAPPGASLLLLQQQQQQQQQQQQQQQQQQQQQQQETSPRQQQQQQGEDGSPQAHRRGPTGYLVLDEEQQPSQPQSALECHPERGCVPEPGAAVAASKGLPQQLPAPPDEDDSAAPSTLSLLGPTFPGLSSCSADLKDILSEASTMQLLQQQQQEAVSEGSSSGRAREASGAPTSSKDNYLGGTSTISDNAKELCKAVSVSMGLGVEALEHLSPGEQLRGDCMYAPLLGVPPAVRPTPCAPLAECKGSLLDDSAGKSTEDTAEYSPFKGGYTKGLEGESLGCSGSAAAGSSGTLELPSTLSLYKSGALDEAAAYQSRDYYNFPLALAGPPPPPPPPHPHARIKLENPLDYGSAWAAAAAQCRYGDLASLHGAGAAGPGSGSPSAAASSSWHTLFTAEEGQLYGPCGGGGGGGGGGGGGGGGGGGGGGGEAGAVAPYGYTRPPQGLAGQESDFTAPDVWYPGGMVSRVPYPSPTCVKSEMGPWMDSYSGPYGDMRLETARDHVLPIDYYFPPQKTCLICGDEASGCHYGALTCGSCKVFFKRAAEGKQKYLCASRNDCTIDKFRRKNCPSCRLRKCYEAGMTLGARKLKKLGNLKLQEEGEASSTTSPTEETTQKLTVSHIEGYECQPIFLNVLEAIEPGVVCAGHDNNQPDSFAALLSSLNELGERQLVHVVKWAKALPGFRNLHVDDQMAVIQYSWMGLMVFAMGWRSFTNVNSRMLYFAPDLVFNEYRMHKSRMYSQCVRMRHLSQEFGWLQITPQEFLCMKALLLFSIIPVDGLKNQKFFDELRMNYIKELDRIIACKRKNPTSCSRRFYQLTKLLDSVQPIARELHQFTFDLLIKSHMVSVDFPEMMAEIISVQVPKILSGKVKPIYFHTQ
In short: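 Luciferase luminescence is the read-out: compounds are tested for suppressing 0.5 nM R1881-driven MMTV reporter activity in MDA-kb2 cells after 16 hr at 37C.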
Tags give direction and shape of the fitted curve or compound fluorescence and quenching.

Structure (SMILES) | Potency [1] | Potency [2] | Potency [3] | Potency [4] | Potency [5] | Potency [6] | Potency [7] | Potency [8] | Potency [9] | Potency [10] | Potency [11] | Potency [12] | Potency [13] | Potency [14] | Potency [15] | Potency [16] | Potency [17]
[Cl-].[Cl-].[Hg+2] | active: 48.8 µM and active: 3.89 µM | inconclusive: 614 nM [rising, partial curve] and inconclusive: 195 nM [rising, partial curve] | active: 38.7 µM and active: 11 µM | inconclusive: 54.7 µM [cytotoxic, single point] and inconclusive: 24.5 µM [cytotoxic, partial curve] | active: 27.2 µM and active: 21.7 µM | inconclusive: 68.2 µM [cytotoxic, partial curve, poor fit] and active: 6.86 µM | active: 68.2 µM and inconclusive: 68.6 µM [cytotoxic, single point] | active: 34.2 nM and active: 243 nM |  |  |  |  |  |  |  |  | 
CCN(CC)C(=S)S | inactive and inconclusive: 21.9 µM [cytotoxic, full curve] | inconclusive: 24.8 µM [cytotoxic, single point] |  |  | inconclusive: 54.9 µM [cytotoxic] and inconclusive: 15.4 µM [cytotoxic, full curve] | inconclusive: 27.5 µM [cytotoxic, full curve] and inconclusive: 6.82 µM [cytotoxic, full curve] and inconclusive: 12.2 µM [cytotoxic, full curve] |  | inconclusive: 15.4 µM [inhibitor, single point] | inconclusive: 0.175 µM [cytotoxic, single point] | inconclusive: 69.1 µM [inhibitor, single point] and inconclusive: 27.3 µM [inhibitor, single point] | inconclusive: 3.42 µM [cytotoxic, full curve] and inconclusive: 6.11 µM [cytotoxic, full curve] |  |  |  |  |  | 
CCC(C)(C)c1ccc(O)c(C(C)(C)CC)c1 | inconclusive: 48.5 µM [cytotoxic, single point] and inconclusive: 54.9 µM [cytotoxic, single point] | active: 43.2 µM and inconclusive: 11 µM [cytotoxic, full curve] |  |  |  | active: 67.8 µM and inconclusive: 61.1 µM [cytotoxic] | inconclusive: 60.4 µM [cytotoxic, partial curve] and inconclusive: 19.3 µM [cytotoxic] | inconclusive: 60.4 µM [inhibitor, single point] | inconclusive: 12.3 µM [cytotoxic, full curve] | inconclusive: 27 µM [inhibitor, partial curve] | inconclusive: 48 µM [cytotoxic, partial curve] and inconclusive: 68.6 µM [cytotoxic, single point] | inconclusive: 54.4 µM [activator, single point] and inconclusive: 54.9 µM [activator, single point] | inconclusive: 48.6 µM [cytotoxic, partial curve] | inactive | inconclusive: 67.8 µM [cytotoxic, single point] and inconclusive: 68.6 µM [cytotoxic] | inconclusive: 76.1 µM [cytotoxic, single point] and inconclusive: 68.6 µM [cytotoxic, single point] | 
CC1(C)CN=C(NN=C(/C=C/c2ccc(C(F)(F)F)cc2)/C=C/c2ccc(C(F)(F)F)cc2)NC1 | active: 19.5 µM | active: 43.6 µM | inconclusive: 54.9 µM [activator, single point] |  | active: 61.1 µM |  |  |  | inconclusive: 54.9 µM [cytotoxic, single point] | active: 48.6 µM | active: 30.6 µM | active: 34.7 µM |  |  | inconclusive: 21.7 µM [cytotoxic, partial curve] | inconclusive: 48.6 µM [cytotoxic, partial curve] | 
ClC1=C(Cl)C2(Cl)C3C(Cl)C(Cl)CC3C1(Cl)C2(Cl)Cl (stereo not given) | inconclusive: 54.8 µM [cytotoxic, single point] and inconclusive: 54.9 µM [cytotoxic, single point] | active: 48.8 µM and inconclusive: 54.9 µM [cytotoxic, single point] | active: 54.8 µM and inconclusive: 54.9 µM [activator, single point] |  |  |  |  | inactive and inconclusive: 27.3 µM [inhibitor, partial curve, poor fit] | active: 48.8 µM and active: 49 µM |  | inconclusive: 68.4 µM [cytotoxic, single point] | inconclusive: 54.8 µM [activator, single point] and inconclusive: 54.9 µM [activator, single point] | active: 43.1 µM and active: 61.1 µM |  | inconclusive: 68.4 µM [single point] and inconclusive: 68.6 µM [single point] | active: 12.2 µM and active: 27.3 µM | active: 60.9 µM and active: 48.6 µM
